SMILES strings stand for the structures. Hit rate of the full screen: of about 150,000 compounds, about 540 (0.36%) showed an effect of 50% or more. Some of the results follow.

The subject of this test is Plasmodium falciparum. Nature of the test: Primary screen in NF54 nanoGlo assay, in single point, at 2uM, 72h; a lower Z score goes with more inhibition. It counts as functional, Erythrocyte. The note with it: timepoint 72 hour.
For `CCN(C(=O)c1ccc(Br)cc1Cl)c1ncc[nH]1`, the % Inhibition – broadly, the drop in the measured response relative to a control, in per cent – is -16% and the Z score came out at 2.46.

Take `FC(F)(F)Cn1ccnc1COc1c(Br)cccc1Br`: the “% Inhibition” value is reported as -12% and the Z score was 2.05.

As for `COc1cc(OC)c(NC(=O)COc2ccccc2-c2nc3ccccc3s2)cc1Cl`, the “% Inhibition” value stood at 35% and the Z score is listed as -4.45.

As to `O=C(c1ccoc1)N1CC(C(F)(F)F)C1`, the “% Inhibition” value is -11% and the Z score is on record as 1.58.

Take `COc1ccc(Cc2nc3ccccc3n2CC(=O)N2CCCCCC2)cc1`: the “% Inhibition” value is -9% and the Z score is given as 1.23.

With `CCN(CC)c1cc2c(cc1F)c(=O)c(S(=O)(=O)c1cccc(Cl)c1)cn2Cc1ccc(F)cc1`, the “% Inhibition” value is listed as -12% and the Z score was 1.45.

`CCCN(Cc1c(C(C)C)nn(-c2ccccc2)c1N(C)C)C(=O)NCC`: the “% Inhibition” value is listed as -1% and the Z score was found to be 0.1.

Take `c1coc(-c2noc(CN3CCN(c4nccs4)CC3)n2)c1`: the “% Inhibition” value is recorded as -10% and the Z score is 2.06.

As for `COCCn1c(N)c(C(=O)CN2CC(C)CC(C)C2)c(=O)[nH]c1=O` (configuration not stated), the “% Inhibition” value was found to be 11% and the Z score is -1.42.

For `CC(C)(C)c1ccc(S(=O)(=O)Nc2ccc(C(=O)N3CCN(c4ncccn4)CC3)cc2)cc1`, the “% Inhibition” value stood at 0% and the Z score was found to be 0.04.

Take `CC1CCC(NS(=O)(=O)c2ccc3c(c2)CCCN3C(=O)C2CCC2)CC1` (configuration not stated): the “% Inhibition” value is -9% and the Z score was determined as 1.22.

For `CC(C)(C)c1nc(CN2CCn3cncc3C2)n[nH]1`, the “% Inhibition” value is given as -15% and the Z score is recorded as 2.42.

Take `O=C([C@@H]1CC=CCC1)N1CCN(c2ccc(-n3cncn3)nn2)CC1`: the “% Inhibition” value was 13% and the Z score is listed as -1.63.

With `Cc1cccc(NC(=O)N[C@H](CO)C(C)C)c1Br`, the “% Inhibition” value is -1% and the Z score was found to be 0.14.

Consider `CN(Cc1ccco1)C(=O)c1ccc2c(c1)N(C)C(=O)[C@@H]1CCCCN21`, for which the “% Inhibition” value was -1% and the Z score came out at 0.11.

As to `CC1CC(C(=O)O)CC(C)N1Cc1cccc2nsnc12` (configuration not stated), the “% Inhibition” value is -5% and the Z score stood at 1.

For the compound `Cc1noc(C)c1S(=O)(=O)Nc1ccc(Oc2ccccc2)cn1`, the “% Inhibition” value is listed as 7% and the Z score is given as -1.16.

Take `CNC(=O)c1ccc(CNC(c2ccc(Cl)cc2)C2CN(C)CCO2)cc1` (configuration not stated): the “% Inhibition” value is on record as -11% and the Z score was 1.29.

On to `C[C@H](NCc1nc(C2OCCO2)cs1)C1CC1`, for which the “% Inhibition” value is -19% and the Z score amounted to 2.32.

On to `O=C(CNC(=O)c1ncccc1Oc1ccccc1)Nc1cccnc1`, for which the “% Inhibition” value is -17% and the Z score is listed as 1.49.

For the compound `CCN(C(=O)c1cccc(-c2ccoc2)c1)c1ccncc1`, the “% Inhibition” value was -3% and the Z score was determined as 0.24.

In the case of `COc1ccc(-c2nc3ccc(C(=O)NC4CCCC(C)C4C)cc3nc2-c2ccc(OC)c(OC)c2)cc1OC` (configuration not stated), the “% Inhibition” value amounted to 24% and the Z score is on record as -2.87.

Consider `COCCCCC(=O)NCC1(O)CCCCC1`, for which the “% Inhibition” value is 12% and the Z score was -2.16.

For the compound `CC1CC1C(=O)Nc1ccc2c(c1)OC1(CCCCC1)O2` (configuration not stated), the “% Inhibition” value came out at 3% and the Z score is on record as -0.48.

Regarding `Cc1cccc(N2CCN(C(=O)c3cccc(N4C(=O)C5CC=CC(C)C5C4=O)c3)CC2)c1C` (configuration not stated), the “% Inhibition” value was -5% and the Z score is 0.62.

As for `Cn1cnc2c1CCN(CCCOc1ccc3c(c1)OCO3)C2`, the “% Inhibition” value is on record as -1% and the Z score was determined as 0.11.

As to `CCCOc1ccccc1CCNC(=O)[C@@H]1C=CCN1`, the “% Inhibition” value is listed as -22% and the Z score amounted to 2.04.

Turning to `O=C(N[C@H]1COC[C@H]1NC(=O)c1cccnc1)c1cccnc1`, the “% Inhibition” value is 0% and the Z score is recorded as 0.03.

In the case of `CN(C)CCN(Cc1ccsc1)C(=O)c1cc2cc(F)ccc2[nH]1`, the “% Inhibition” value is reported as -5% and the Z score is 0.68.

For the compound `CC(Oc1ccc(C(F)(F)F)cc1)C(=O)NC(C)c1ncon1` (configuration not stated), the “% Inhibition” value was -2% and the Z score amounted to 0.18.

For `Cc1cccc(Cn2cnc3ccncc3c2=O)n1`, the “% Inhibition” value is listed as 1% and the Z score is -0.22.

In the case of `COCc1nc(C2CC2)nc(N2CCN(C(=O)c3ccccc3Cl)CC2)c1Cc1cccc(C)c1`, the “% Inhibition” value is reported as -3% and the Z score came out at 0.31.

In the case of `COc1ccnc(C(=O)N2CCCN(S(=O)(=O)N3CCCC3)CC2)c1`, the “% Inhibition” value is listed as -9% and the Z score amounted to 1.86.

As for `Cc1ccc(-n2cnnc2)c(C(=O)N2CC(C)S(=O)(=O)C(C)C2)c1` (configuration not stated), the “% Inhibition” value was -1% and the Z score was 0.27.

As for `O=C1NC[C@H]2O[C@H](CCOc3cc(-c4ccccc4)ccc3C(=O)N3CCN(Cc4ccc(C(F)(F)F)cc4)C[C@@H]13)CC[C@@H]2O`, the “% Inhibition” value is reported as 17% and the Z score is on record as -1.96.

Regarding `O[C@H]1CCCC[C@@H]1N1CCN(CCCc2ccco2)CC1`, the “% Inhibition” value is listed as -10% and the Z score is on record as 1.96.

Take `C=C[C@H]1OCC[C@@H]1C(=O)NC(C)(C)C(O)C(F)(F)F` (some centres not stated): the “% Inhibition” value is on record as -13% and the Z score is given as 1.53.

For the compound `CC(C)NC(=NC1CC1)NCc1cc2ccccc2o1`, the “% Inhibition” value was determined as 3% and the Z score is reported as -0.37.

Consider `CC(C)C1CN(C(=O)c2cnc(C3OCCO3)s2)C1C(C)C` (configuration not stated), for which the “% Inhibition” value is 5% and the Z score is -0.88.

Turning to `CCn1cc(Br)c(=O)c(NC(=O)[C@@H](C)C(C)(C)C)c1`, the “% Inhibition” value amounted to 3% and the Z score was -0.43.

Take `CCc1nocc1CN(C)C(=O)[C@@H]1CCCN1CC(F)(F)F`: the “% Inhibition” value is listed as 0% and the Z score was found to be 0.05.

The values above are taken from ChEMBL document CHEMBL4888484, “Replenishing the malaria drug discovery pipeline: Screening and hit evaluation of the MMV Hit Generation Library 1 (HGL1) against asexual blood stage Plasmodium falciparum ,using a nano luciferase reporter read-out” (2022).
